Test results reported in PubChem BioAssay AID2147 (National Center for Advancing Translational Sciences (NCATS), 2009).
Out of some 230,000 compounds screened, about 3,600 (1.6%) were called active. The inconclusive results got no clear call from the source; some entries with a clear call stand among them for comparison. The call rests on the fitted dose curve; in most records, active means well fitted inhibition curve with a large enough effect (not every such curve was filed as active); inconclusive means small, poorly fitted or top-dose-only effect, or another doubt; inactive means no such curve, though single readings can be large or run the other way. A potency beside an inconclusive call is a rough fit, not a confirmed value.

target: Lysine-specific demethylase 4E (Homo sapiens) (UniProt B2RXH2); test: qHTS Assay for Inhibitors of Human Jumonji Domain Containing 2E (JMJD2E); details: JMJD2E catalytic domain, FDH-coupled NADH fluorescence (FDH is formaldehyde dehydrogenase); series mostly up to 57.1 µM
Chain of UniProt B2RXH2 (B2RXH2 whole entry, looked up, the tested form may be a part): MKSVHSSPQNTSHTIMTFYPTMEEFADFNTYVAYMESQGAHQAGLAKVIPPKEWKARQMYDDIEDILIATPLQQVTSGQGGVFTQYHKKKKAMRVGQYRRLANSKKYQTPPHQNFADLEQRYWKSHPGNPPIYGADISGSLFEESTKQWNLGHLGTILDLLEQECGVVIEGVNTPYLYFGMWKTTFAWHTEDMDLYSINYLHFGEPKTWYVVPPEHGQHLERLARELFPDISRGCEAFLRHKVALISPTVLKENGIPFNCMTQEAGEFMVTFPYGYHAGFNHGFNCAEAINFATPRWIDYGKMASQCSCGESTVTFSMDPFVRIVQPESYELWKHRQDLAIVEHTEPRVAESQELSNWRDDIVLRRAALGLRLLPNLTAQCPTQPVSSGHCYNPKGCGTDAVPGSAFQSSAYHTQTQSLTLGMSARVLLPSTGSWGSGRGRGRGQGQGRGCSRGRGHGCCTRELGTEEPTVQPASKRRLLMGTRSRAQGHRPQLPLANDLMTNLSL
Further: nearly all actives have a fitted effect of over 50% in size.
Potency means the concentration at half of the fitted maximal effect; tags describe the fitted curve by direction and shape.

Row | Structure (SMILES) | Potency
1 | CCCCC1(C)NC(=O)c2c(C)sc(C(=O)OCC)c2N1 (stereo not given) | inconclusive: 31.6 µM [inhibitor, partial curve]
2 | CN1C(=O)c2ccc(NC(=S)NC(=O)C(C)(C)C)cc2C1=O | inconclusive: 35.5 µM [inhibitor, single point]
3 | CCC(=O)Nc1nonc1-c1nc2ccccc2n1N(C(=O)CC)C(=O)CC | inconclusive: 35.5 µM [inhibitor, partial curve]
4 | CN(Cc1cnn(-c2ccc(F)cc2)c1)Cc1nc(Cc2ccccc2)no1 | inconclusive: 0.0158 µM [inhibitor, full curve, poor fit]
5 | Cc1ccc(C(=O)Nc2ccc(N3CCCC3)cc2)c(C)c1 | active: 25.1 µM
6 | COc1cccc(/C=C2\Sc3ccc(C(=O)NCc4cccnc4)cc3N(C)C2=O)c1 | inconclusive: 39.8 µM [inhibitor, single point]
7 | CN(C#N)c1nccc(-c2cccs2)n1 | inconclusive: 31.6 µM [inhibitor, partial curve]
8 | COc1ccc(S(=O)(=O)NCCSc2ccc(C)cc2)cc1OC | inactive
9 | CCCCNS(=O)(=O)c1ccc(OC)c2ncccc12 | inconclusive: 31.6 µM [inhibitor, partial curve]
10 | O=C(Nc1nnc(-c2ccco2)o1)c1ccc(S(=O)(=O)N2CCCC2)cc1 | inconclusive: 28.2 µM [inhibitor, single point]
11 | COCCCNC(=O)Cn1nnc(-c2ccc(NC(=O)c3ccccc3F)cc2)n1 | inconclusive: 35.5 µM [inhibitor, single point]
12 | Cc1nn(-c2ccccc2)c2sc(C(=O)NC3CCCCC3)cc12 | inconclusive: 28.2 µM [inhibitor, single point]
13 | Cc1cc(C)c(C(=O)O)c(CC(C)(C)C(=O)O)c1 | inconclusive: 39.8 µM [inhibitor, single point]
14 | CC(C)Nc1nc(Cl)nc(N(C#N)CN2C(=O)c3ccccc3S2(=O)=O)n1 | inactive
15 | CCn1cc(CNC(=S)Nc2cccc3ccccc23)cn1 | inconclusive: 35.5 µM [inhibitor, single point]
16 | Cc1occc1C(=O)Nc1nnc(-c2cccs2)s1 | inconclusive: 31.6 µM [inhibitor, partial curve]
17 | Oc1ccccc1/C=N/n1c(-c2cccs2)n[nH]c1=S | inconclusive: 35.5 µM [inhibitor, single point]
18 | CCOC(=O)C1=C(C)NC2=C(C(=O)CCC2)C1c1cc(OC)ccc1OC (stereo not given) | inconclusive: 39.8 µM [inhibitor, single point]
19 | CCS(=O)(=O)Nc1ccc(C2=NN(C(=O)c3ccco3)C(c3cccc(F)c3)C2)cc1 (stereo not given) | inconclusive: 35.5 µM [inhibitor, single point]
20 | Cn1nc(-c2ccc(Cl)cc2)c2cc(C(=O)NCC3CCCO3)sc21 (stereo not given) | inconclusive: 28.2 µM [inhibitor, partial curve]
21 | COc1cccc(-c2nnc(NC(=O)c3ccc(S(=O)(=O)N4CCOCC4)cc3)o2)c1 | inconclusive: 39.8 µM [inhibitor, single point]
22 | COCCNC(=O)C(c1ccc(C)o1)N(C(=O)c1snc(C(N)=O)c1N)c1ccc(C)cc1 (stereo not given) | inconclusive: 25.1 µM [inhibitor, partial curve]
23 | Cn1nnnc1SCC(=O)c1ccc2c(c1)OCCO2 | inactive
24 | CCCCOc1ccc2ccccc2c1C=O | inactive

Row | Structure (SMILES) | Potency
25 | Cn1c(=O)c(=O)n(C)c2cc(S(=O)(=O)N3CCCC3C(=O)NCc3cccs3)ccc21 (stereo not given) | inconclusive: 39.8 µM [inhibitor, single point]
26 | S=c1[nH]nc(-c2ccc(Br)cc2)n1-c1ccc2c(c1)OCCO2 | inconclusive: 28.2 µM [inhibitor, single point]
27 | NC(=O)CC(NC(=O)Cc1ccc(Br)cc1)c1ccc(NCCc2ccc(F)cc2)c([N+](=O)[O-])c1 (stereo not given) | inactive
28 | Cc1cc(C(=O)OCCO)c(C#N)c(N)n1 | inconclusive: 31.6 µM [inhibitor, partial curve]
29 | CCOC(=O)c1cc(C(=O)NC(C)c2ccccc2)c(C)[nH]c1=O (stereo not given) | inconclusive: 35.5 µM [inhibitor, single point]
30 | CC1CCCCN1CCNC(=O)c1ccc2c(=O)n(CCc3ccccc3)c(=O)[nH]c2c1 (stereo not given) | inconclusive: 35.5 µM [inhibitor, single point]
31 | CNC(=S)N(CCc1c(C)[nH]c2ccc(Cl)cc12)Cc1cccs1 | inactive
32 | CCCC1=C(C(=O)OCC)C(c2ccc(OC)c(C)c2OC)C(C#N)=C(N)O1 (stereo not given) | inconclusive: 0.631 µM [inhibitor, single point]
33 | Oc1[nH]c2ccccc2c1/C=N/N1CCCCC1 | inconclusive: 35.5 µM [inhibitor, single point]
34 | O=C(CSc1nnc(CNc2ccccc2)o1)N1CCc2ccccc21 | inactive
35 | CCOC(=O)C1CCCN(Cc2cc(Br)c(OC)cc2OC)C1 (stereo not given) | inconclusive: 39.8 µM [inhibitor, single point]
36 | CCc1ccnc(NS(=O)(=O)c2ccc3c(c2)CCO3)c1 | inconclusive: 39.8 µM [inhibitor, single point]
37 | N#CC(C#N)=Cc1ccc(OCC(=O)N2CCOCC2)cc1 | inconclusive: 31.6 µM [inhibitor, single point]
38 | c1ccc(-c2nc(-c3ccccc3)c(NC3CCCCC3)o2)cc1 | inactive
39 | COc1ccc(C2CC(c3ccc4ccccc4c3OC(C)=O)=NN2C(C)=O)cc1 (stereo not given) | inconclusive: 28.2 µM [inhibitor, partial curve]
40 | O=C(NNc1cccc(Cl)n1)Nc1ccc(Cl)cc1 | inactive
41 | O=C(CSc1nnc2ccccn12)NNC(=O)c1ccc(Br)cc1 | inconclusive: 39.8 µM [inhibitor, single point]
42 | Cc1ccccc1-n1nc(C)c2cc(C(=O)NCc3cccnc3)sc21 | inconclusive: 22.4 µM [inhibitor, partial curve]
43 | c1csc(-c2nc3c4ccccc4c4ccccc4c3[nH]2)c1 | inconclusive: 28.2 µM [inhibitor, partial curve]
44 | CN1C(=O)N(C)C2=NNC=NC2(O)C1=O (stereo not given) | inconclusive: 39.8 µM [inhibitor, single point]
45 | N=c1c(C(=O)NCC2CCCO2)cc2c(=O)n3ccccc3nc2n1Cc1cccnc1 (stereo not given) | inconclusive: 31.6 µM [inhibitor, partial curve]
46 | C=CCN(c1ccccc1)S(=O)(=O)c1cccc(C(=O)OCC(=O)NCCOC)c1 | inconclusive: 39.8 µM [inhibitor, single point]
47 | COc1ccccc1N=C1SCC(=O)N1Cc1ccco1 | inactive
48 | O=c1c2cccnc2n(-c2ccccc2)n1Cc1ccc(Cl)cc1 | inconclusive: 28.2 µM [inhibitor, partial curve]

Row | Structure (SMILES) | Potency
49 | CCOC(=O)c1c(C)[nH]c(C)c1C(=O)COC(=O)c1cc2ccccc2cc1O | inactive
50 | O=C(O)/C=C\C(=O)Nc1ccccc1C(=O)NCc1ccccc1 | inconclusive: 31.6 µM [inhibitor, partial curve]
51 | COc1ccc(S(=O)(=O)C(C#N)c2nc3ccccc3nc2N2CCC(C)CC2)cc1 (stereo not given) | inconclusive: 31.6 µM [inhibitor, partial curve]
52 | COc1cccc(N=Nc2c(=O)[nH]n3c(=O)cc(C)[nH]c23)c1 | inactive
53 | COc1ccccc1-n1cnc2c(c1=O)c1nc3ccccc3nc1n2CCc1ccccc1 | inconclusive: 3.55 µM [inhibitor, partial curve]
54 | CCC(=O)Oc1c(C(=O)CC)cc2c(C)cc(=O)oc2c1C | inactive
55 | Nc1ncnc2c1c(-c1ccc(Oc3ccccc3)cc1)cn2C1CCCC1 | inconclusive: 25.1 µM [inhibitor, partial curve]
56 | COc1ccc(-c2nc3ccccc3nc2-c2ccccc2)cc1 | inconclusive: 35.5 µM [inhibitor, partial curve]
57 | CCOCCCNC(=S)NCCCNc1nc2ccc(C)cc2cc1C#N | inconclusive: 35.5 µM [inhibitor, partial curve]
58 | CCOc1ccccc1NC(=O)C1CCCN(S(=O)(=O)c2ccc(OC)c(C)c2)C1 (stereo not given) | inconclusive: 35.5 µM [inhibitor, single point]
59 | COC(=O)CCc1nc2ccccc2nc1OC | inconclusive: 25.1 µM [inhibitor, partial curve]
60 | Cc1ccc(NC(=S)Nc2cccc(S(=O)(=O)Nc3c(C)n(C)n(-c4ccccc4)c3=O)c2)cc1 | inactive
61 | CC(C)Cc1nc(SCC(=O)NCc2ccccc2)n[nH]1 | inconclusive: 39.8 µM [inhibitor, single point]
62 | CN(c1ccccc1)S(=O)(=O)c1ccc(NC(=O)c2ccccc2)cc1 | inactive
63 | CC(=O)c1ccc(-c2nnc(CCC(=O)N(C)Cc3c(C)nc4ccccn34)o2)s1 | inactive
64 | CCn1c2ccccc2c2cc(NC(=O)COC(=O)c3cc(Cl)c(N)cc3OC)ccc21 | inconclusive: 25.1 µM [inhibitor, partial curve]
65 | CCOC(=O)Cc1csc(NC(=O)/C=C/c2ccco2)n1 | inconclusive: 35.5 µM [inhibitor, single point]
66 | CCN(CC)c1ccc2c(C)c(CO)c(=O)oc2c1 | inconclusive: 22.4 µM [inhibitor, partial curve]
67 | CCc1nnc(NC(=O)c2cccc(S(=O)(=O)N(C)c3ccccc3)c2)s1 | inactive
68 | COCCCCCCCCCCCC(=O)O | inactive
69 | O=C(O)Cc1sc(-c2ccccc2)nc1-c1ccccc1 | inconclusive: 35.5 µM [inhibitor, single point]
70 | CSC1=N/C(=C/c2cccnc2)C(=O)N1Cc1ccc(Cl)cc1 | inconclusive: 31.6 µM [inhibitor, partial curve]
